# Measured values published in PubChem BioAssay (NCATS).
# “And” between values parts separate entries of the source, which are not always exact repeats. Equal entries are not always repeated. The shares of active, inactive and inconclusive entries below differ from those in the screen. For some of these results: A potency beside an inconclusive call is a rough fit, not a confirmed value. The source made the active and inactive calls. Unless noted, calls follow the shape of the dose curve; as a rule, active = well fitted curve in the direction sought with a large enough effect; inconclusive = small, poorly fitted or top-dose-only effect, or another doubt; inactive = no such curve, though single readings can be large; an effect the other way counts as inactive or inconclusive.
# Legend:
# [1] = Cell Viability - H-4-II-E (AID 543);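 also: potency is read from the fitted curve at half-maximal effect; cells exposed to compound for 40 hours; nearly all actives have a fitted effect of over 35% in size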
# Method in brief: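 Here, cytotoxicity is measured in the rat hepatoma line H-4-II-E as loss of intracellular ATP after 40 hr compound treatment, detected by luciferase luminescence.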
# [2] = MultiTox-Fluor Cytotoxicity Assay - LYMP1-003 - Live Cells (AID 962); conditions: LYMP1-003 lymphoblastoid cells, MultiTox-Fluor live-cell protease fluorescence; at 92.2 µM (top of the series);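 also: 0% = DMSO only and full loss = 92 µM tetraoctylammonium bromide; cytotoxic hits lower the live-cell protease signal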
# Method in brief: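 Cells plated at 2500 per well and incubated 5 hr; compounds added and incubated 16 hr at 37 C; MultiTox-Fluor reagent added for 60 min at room temperature; fluorescence of liberated AFC measured at 405/510 nm.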
# [3] = Cell Viability - LYMP2-005 (AID 967);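 also: plate controls were DMSO only for no effect and 92 µM tetraoctylammonium bromide control for full effect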
# Method in brief: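 Steps: seed 2500 LYMP2-005 cells/well, incubate 5 h at 37 C, add compound, incubate 24 h at 37 C, add CellTiter-Glo, wait 30 min at RT, read luminescence. Concentration-response data fitted to Hill equation for AC50.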
# [4] = molecular target: Peroxisome proliferator-activated receptor gamma (Homo sapiens) (UniProt P37231); assay: qHTS assay for small molecule antagonists of peroxisome proliferator-activated receptor gamma signaling (AID 588537; active = well fitted inhibition curve with a large enough effect in the signal ratio, with a control signal flat, not every such curve was filed as active; inconclusive = small, poorly fitted or top-dose-only effect, or effect the other way, or a change in a side signal; the % refers to the signal ratio;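 also: reporter cells co-stimulated with 50 nM rosiglitazone agonist during compound treatment; % of control where 0% means no effect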); conditions: HEK293 PPARg-UAS-bla, beta-lactamase ratio, antagonist mode; activity, negative = inhibition: at 76.8 µM (top of the series) unless noted
# Method in brief: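 Inhibitors of agonist-stimulated UAS-bla reporter activity were sought in HEK293 cells; rosiglitazone (50 nM) defined full signal and DMSO baseline. Curves fitted to Hill model gave IC50 and efficacy.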
# [5] = molecular target: Tumor necrosis factor (Homo sapiens) (UniProt P01375); assay: qHTS assay to identify small molecules that stimulate Tumor Necrosis Factor-alpha (TNF-alpha) secretion (AID 651757; active = well fitted curve in the direction sought with a large enough effect in the signal ratio; inconclusive = small, poorly fitted or top-dose-only effect, or a change in a side signal; inactive = no such curve, though single readings can be large or run the other way; the % refers to the signal ratio; also: 0% is about no effect); conditions: Human cells, HTRF 665/615 ratio; activation (TNF-alpha secretion): at 92.2 µM (top of the series)
# Sequence of UniProt P01375 (P01375 whole entry, looked up): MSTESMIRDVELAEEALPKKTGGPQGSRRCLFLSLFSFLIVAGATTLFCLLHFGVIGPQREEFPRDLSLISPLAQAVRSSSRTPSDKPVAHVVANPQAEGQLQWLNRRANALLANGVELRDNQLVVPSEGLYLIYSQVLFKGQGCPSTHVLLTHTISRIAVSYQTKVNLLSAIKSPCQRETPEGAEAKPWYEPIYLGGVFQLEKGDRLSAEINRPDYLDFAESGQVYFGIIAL
# Method in brief: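 Secreted TNF-alpha from compound-treated THP-1 cells (17 hrs, 37 C) was quantified with a homogeneous time-resolved fluorescence antibody assay.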
# [6] = qHTS assay to identify small molecules that stimulate interleukin-8 (IL-8) secretion (AID 651758; active = well fitted activation curve with a large enough effect in the signal ratio; inconclusive = small, poorly fitted or top-dose-only effect, or effect the other way, or a change in a side signal; the % refers to the signal ratio; also: 0% is about no effect); conditions: HTRF ratio (665/615); activation: at 92.2 µM (top of the series)
# Method in brief: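 Secreted IL-8 measured by TR-FRET sandwich (cryptate and XL665 antibodies) from THP-1 cells exposed to compound overnight (16 hrs, 37 C).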
# [7] = Cell Viability - SH-SY5Y (AID 544); conditions: SH-SY5Y neuroblastoma cell viability; at 92.2 µM (top of the series);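 also: cells exposed to compound for 40 hours; nearly all actives have a fitted effect of over 55% in size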
# Method in brief: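 Cytotoxicity is scored as a concentration-dependent fall in intracellular ATP in human SH-SY5Y cells treated 40 hr in complete culture medium. Potency is expressed as AC50 from a Hill equation fit.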
# [8] = Cell Viability - LYMP2-003 (AID 965); conditions: LYMP2-003 lymphoblastoid cell viability; activity change, negative = cytotoxicity: at 92.2 µM (top of the series);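 also: cells exposed to compounds for 24 h before reading; 0% = DMSO only and full effect = 92 µM tetraoctylammonium bromide; nearly all actives have a fitted effect of over 50% in size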
# Method in brief: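 CellTiter-Glo luminescence (cellular ATP) after 24 h compound exposure at 37 C in complete medium; 2500 cells/well, 5 h settling beforehand. Concentration-response fitted to standard Hill equation for AC50. Tetraoctylammonium bromide served as positive control.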
# [9] = Cell Viability - LYMP2-020 (AID 986); conditions: activity change, negative = viability loss: at 92.2 µM (top of the series);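 also: plate controls were DMSO only for no effect and tetraoctylammonium bromide at 92 µM for full effect; nearly all actives have a fitted effect of over 55% in size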
# Method in brief: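 Acute cytotoxicity in a human lymphoblastoid line is scored as a concentration-dependent fall in cellular ATP after 24 hr at 37 C in complete medium. The positive control is tetraoctylammonium bromide, and potency is given as Hill-fit AC50.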
# [10] = molecular target: Glucocorticoid receptor (Homo sapiens) (UniProt P04150); assay: qHTS assay for small molecule antagonists of glucocorticoid receptor signaling (AID 588533; active = well fitted inhibition curve with a large enough effect in the signal ratio, with a control signal flat, not every such curve was filed as active; inconclusive = small, poorly fitted or top-dose-only effect, or effect the other way, or a change in a side signal; the % refers to the signal ratio;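 also: cells stimulated with 2 nM dexamethasone as agonist; % is scaled to controls: 0 for no effect and ±100 for the full control effect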); conditions: HeLa MMTV-bla, GRE beta-lactamase ratio, antagonist mode, 18 h; activity change, negative = inhibition: at 76.8 µM (top of the series)
# Sequence of UniProt P04150 (P04150 whole entry, looked up): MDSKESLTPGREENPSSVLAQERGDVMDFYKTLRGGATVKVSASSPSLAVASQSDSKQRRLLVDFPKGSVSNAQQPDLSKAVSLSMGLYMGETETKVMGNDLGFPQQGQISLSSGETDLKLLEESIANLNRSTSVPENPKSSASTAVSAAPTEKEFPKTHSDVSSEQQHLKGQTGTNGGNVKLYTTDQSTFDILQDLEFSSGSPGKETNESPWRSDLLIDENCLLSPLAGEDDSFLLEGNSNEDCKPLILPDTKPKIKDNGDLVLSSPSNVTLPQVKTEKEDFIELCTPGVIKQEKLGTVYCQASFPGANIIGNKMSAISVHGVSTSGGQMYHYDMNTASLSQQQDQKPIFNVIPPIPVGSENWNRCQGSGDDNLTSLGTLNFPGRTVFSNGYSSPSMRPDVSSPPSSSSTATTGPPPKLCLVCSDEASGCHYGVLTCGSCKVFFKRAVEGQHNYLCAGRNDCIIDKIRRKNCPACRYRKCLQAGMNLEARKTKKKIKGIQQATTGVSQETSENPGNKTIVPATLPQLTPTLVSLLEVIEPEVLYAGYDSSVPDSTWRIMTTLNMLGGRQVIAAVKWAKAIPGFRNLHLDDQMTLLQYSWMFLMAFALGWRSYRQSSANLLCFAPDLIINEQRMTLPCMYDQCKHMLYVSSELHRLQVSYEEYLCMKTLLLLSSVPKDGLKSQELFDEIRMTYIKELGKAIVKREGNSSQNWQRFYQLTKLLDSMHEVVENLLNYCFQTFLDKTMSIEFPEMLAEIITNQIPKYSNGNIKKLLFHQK
# [11] = molecular target: Peroxisome proliferator-activated receptor delta (Homo sapiens) (UniProt Q03181); assay: qHTS assay for small molecule antagonists of peroxisome proliferator-activated receptor delta signaling (AID 588535; active = well fitted inhibition curve with a large enough effect in the signal ratio, with a control signal flat, not every such curve was filed as active; inconclusive = small, poorly fitted or top-dose-only effect, or effect the other way, or a change in a side signal; inactive = no such curve, though single readings can be large or run the other way; the % refers to the signal ratio); conditions: HEK293T PPARd-UAS-bla, beta-lactamase FRET ratio, 18 h; activity change, negative = inhibition: at 76.7 µM (top of the series) unless noted
# Sequence of UniProt Q03181 (Q03181 whole entry, looked up): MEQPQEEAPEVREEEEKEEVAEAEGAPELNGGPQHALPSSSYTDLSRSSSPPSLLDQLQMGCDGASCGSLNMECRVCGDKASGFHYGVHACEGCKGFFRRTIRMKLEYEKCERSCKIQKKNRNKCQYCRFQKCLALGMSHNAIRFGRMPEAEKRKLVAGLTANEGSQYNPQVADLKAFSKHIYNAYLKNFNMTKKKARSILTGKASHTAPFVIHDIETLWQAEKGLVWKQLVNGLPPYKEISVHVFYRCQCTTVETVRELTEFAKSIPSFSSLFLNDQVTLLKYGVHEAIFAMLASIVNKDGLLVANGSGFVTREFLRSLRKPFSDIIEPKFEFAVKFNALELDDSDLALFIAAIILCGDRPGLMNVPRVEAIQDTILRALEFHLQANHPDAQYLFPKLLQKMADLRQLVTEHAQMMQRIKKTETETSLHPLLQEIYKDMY
# Method in brief: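 Cell-based beta-lactamase assay in antagonist mode: 4000 HEK293T PPAR-delta-UAS-bla cells per well, 5 hr preincubation then 18 hr compound incubation at 37 C. IC50 obtained by Hill equation fitting.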
# [12] = Cell Viability - LYMP2-019 (AID 973);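 also: 0% = DMSO alone and full effect = 92 µM tetraoctylammonium bromide; nearly all actives have a fitted effect of over 55% in size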
# Method in brief: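 Cells plated at 2500/well and allowed 5 hr at 37 C before compound addition. After 24 hr incubation, CellTiter-Glo reagent was added, plates sat 30 min at room temperature, and luminescence was recorded.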
# [13] = molecular target: Androgen receptor (Homo sapiens) (UniProt P10275); assay: qHTS assay for small molecule antagonists of androgen receptor signaling (AID 588516; active = well fitted curve in the direction sought with a large enough effect in the signal ratio, with a control signal flat, not every such curve was filed as active; inconclusive = small, poorly fitted or top-dose-only effect, or effect the other way, or a change in a side signal; inactive = no such curve, though single readings can be large or run the other way; the % refers to the signal ratio; also: % is scaled to controls: 0 for no effect and ±100 for the full control effect); conditions: AR-UAS-bla HEK293, beta-lactamase ratio, antagonist mode, 16 h; activity change, negative = inhibition: at 76.8 µM (top of the series)
# Sequence of UniProt P10275 (P10275 whole entry, looked up): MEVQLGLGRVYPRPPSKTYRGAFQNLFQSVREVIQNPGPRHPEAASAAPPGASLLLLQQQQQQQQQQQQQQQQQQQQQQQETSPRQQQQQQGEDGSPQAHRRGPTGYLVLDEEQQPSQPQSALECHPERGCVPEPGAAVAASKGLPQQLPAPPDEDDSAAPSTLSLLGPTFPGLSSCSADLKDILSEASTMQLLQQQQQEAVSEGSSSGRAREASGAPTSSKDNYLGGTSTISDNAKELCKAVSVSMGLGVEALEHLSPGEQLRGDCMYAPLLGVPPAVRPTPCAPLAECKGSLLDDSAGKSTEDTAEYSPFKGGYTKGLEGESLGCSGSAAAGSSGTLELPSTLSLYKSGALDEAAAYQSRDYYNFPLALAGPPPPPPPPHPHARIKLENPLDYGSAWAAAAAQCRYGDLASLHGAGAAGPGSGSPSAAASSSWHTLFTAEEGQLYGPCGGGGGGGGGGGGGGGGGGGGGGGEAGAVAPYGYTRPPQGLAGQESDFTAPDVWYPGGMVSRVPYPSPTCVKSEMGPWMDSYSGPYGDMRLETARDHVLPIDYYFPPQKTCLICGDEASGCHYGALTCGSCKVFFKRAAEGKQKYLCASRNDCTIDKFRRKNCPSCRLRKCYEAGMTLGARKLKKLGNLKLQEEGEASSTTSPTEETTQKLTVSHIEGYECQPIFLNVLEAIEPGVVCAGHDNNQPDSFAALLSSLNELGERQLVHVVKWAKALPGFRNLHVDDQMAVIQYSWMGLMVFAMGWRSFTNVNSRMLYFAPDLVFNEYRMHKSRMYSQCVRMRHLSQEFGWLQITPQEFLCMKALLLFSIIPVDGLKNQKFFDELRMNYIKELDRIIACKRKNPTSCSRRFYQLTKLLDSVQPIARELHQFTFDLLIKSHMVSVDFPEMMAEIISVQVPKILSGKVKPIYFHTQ
# Method in brief: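 Cells were plated and incubated 5 h, compounds added in titration, then R1881 (10 nM final) as agonist. After 16 h at 37 C, CCF4 substrate was loaded for 2 h at room temperature and fluorescence measured.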
# [14] = molecular target: Thyroid hormone receptor beta (Homo sapiens) (UniProt P10828); assay: qHTS assay for small molecule agonists of thyroid hormone receptor beta signaling (AID 588545; calls by dose curve); conditions: TR-UAS-bla GripTite HEK 293, beta-lactamase ratio, agonist mode, 18 h; activation: at 76.7 µM, percent of T3 response, DMSO as zero
# Sequence of UniProt P10828 (P10828 whole entry, looked up): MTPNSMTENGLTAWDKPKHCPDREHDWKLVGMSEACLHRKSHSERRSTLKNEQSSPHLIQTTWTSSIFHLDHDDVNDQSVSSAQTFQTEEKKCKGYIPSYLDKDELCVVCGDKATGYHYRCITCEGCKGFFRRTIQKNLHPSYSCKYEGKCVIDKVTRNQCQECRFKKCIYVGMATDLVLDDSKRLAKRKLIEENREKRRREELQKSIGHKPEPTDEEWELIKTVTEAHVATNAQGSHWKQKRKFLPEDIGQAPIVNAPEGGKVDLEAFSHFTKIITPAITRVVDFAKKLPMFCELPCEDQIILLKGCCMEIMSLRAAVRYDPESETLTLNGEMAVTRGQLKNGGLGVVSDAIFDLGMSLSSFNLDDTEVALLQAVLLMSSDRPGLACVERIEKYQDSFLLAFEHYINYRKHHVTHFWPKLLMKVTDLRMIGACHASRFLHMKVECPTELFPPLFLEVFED
# Method in brief: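 HEK 293 TR-UAS-bla; agonist mode; 18 hrs, 37 C; CCF4, ex 405/em 460 and 530 nm; norm. T3 10 nM = 100%, DMSO = 0%; Hill fit → EC50, efficacy.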
# [15] = qHTS assay for small molecule agonists of the antioxidant response element (ARE) signaling pathway (AID 651741; active = well fitted activation curve with a large enough effect in the signal ratio; inconclusive = small, poorly fitted or top-dose-only effect, or effect the other way, or a change in a side signal; the % refers to the signal ratio; also: potency is read from the fitted curve at half-maximal effect; as to activation: % of control where 0% means no effect); conditions: HepG2 ARE-bla reporter, beta-lactamase FRET ratio, 16 h; activation: at 96 µM (top of the series) unless noted
# Method in brief: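 Seeding 2,000 ARE-bla HepG2 cells per well preceded a 5 h incubation at 37 C/5% CO2 and a 16 h compound exposure at 37 C. Beta-lactamase reporter activity was then quantified by fluorescence after 2 h with LiveBLAzer B/G FRET substrate.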
# [16] = Cellular Toxicity (caspase-3) Jurkat (AID 655); conditions: Jurkat caspase-3 activation, luminescence, DMSO = 0%, tamoxifen = 100%; at 92.2 µM (top of the series);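 also: cells exposed to compound for 16 h at 37 °C before reading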
# Method in brief: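 Luminescent caspase-3/7 readout (aminoluciferin substrate cleavage) in human T-cell leukemia Jurkat cells after 16 hr compound exposure. Concentration-response normalized to DMSO and 100 uM tamoxifen; AC50 by standard Hill equation.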
# [17] = molecular target: Estrogen receptor (Homo sapiens) (UniProt P03372); assay: qHTS assay for small molecule agonists of estrogen receptor alpha signaling (AID 588514; calls by dose curve;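 also: 0% = vehicle only and 100% = reference agonist; nearly all actives have a fitted effect of over 70% in size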); conditions: ER-alpha-UAS-bla HEK293, beta-lactamase ratio, 18 h; activation: at 76.8 µM (top of the series), percent of full estradiol response, vehicle zero unless noted
# Sequence of UniProt P03372 (P03372 whole entry, looked up): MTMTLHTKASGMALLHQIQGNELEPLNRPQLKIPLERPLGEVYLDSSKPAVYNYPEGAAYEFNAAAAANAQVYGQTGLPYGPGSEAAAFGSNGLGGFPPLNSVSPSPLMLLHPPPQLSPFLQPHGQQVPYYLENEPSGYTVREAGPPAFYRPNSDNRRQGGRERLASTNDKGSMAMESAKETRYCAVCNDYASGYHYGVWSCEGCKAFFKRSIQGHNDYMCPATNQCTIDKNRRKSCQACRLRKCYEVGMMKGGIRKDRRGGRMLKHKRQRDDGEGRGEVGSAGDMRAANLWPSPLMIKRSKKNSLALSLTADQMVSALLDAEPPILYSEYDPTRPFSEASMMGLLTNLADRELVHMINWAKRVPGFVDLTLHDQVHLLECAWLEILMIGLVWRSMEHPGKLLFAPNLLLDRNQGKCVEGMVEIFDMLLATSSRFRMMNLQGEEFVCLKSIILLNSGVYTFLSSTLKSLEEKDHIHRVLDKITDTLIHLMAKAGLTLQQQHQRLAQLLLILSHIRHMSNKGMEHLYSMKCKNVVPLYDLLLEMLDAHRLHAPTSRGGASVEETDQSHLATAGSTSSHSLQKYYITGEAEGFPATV
# Method in brief: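 Reporter-gene assay. […] controls beta-lactamase in HEK 293 GripTite cells; after 18 hrs with compound, CCF4 substrate is added for 2 hrs and fluorescence is read.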
# [18] = molecular target: Androgen receptor (Homo sapiens) (UniProt P10275); assay: qHTS assay for small molecule agonists of androgen receptor signaling (AID 588515; active = well fitted curve in the direction sought with a large enough effect in the signal ratio, with a control signal flat; inconclusive = small, poorly fitted or top-dose-only effect, or effect the other way, or a change in a side signal; inactive = no such curve, though single readings can be large or run the other way; the % refers to the signal ratio; also: % is scaled to controls: 0 for no effect and ±100 for the full control effect); conditions: AR-UAS-bla HEK293, beta-lactamase ratio, agonist 16 h; activation: stronger effect = higher value
# Method in brief: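 EC50 and efficacy came from Hill fits of titrations (up to 92 uM) normalized to 30 nM R1881 as 100% and DMSO as 0%. Compound exposure was 16 h at 37 C on AR-UAS-bla HEK293 cells, with a 405/460/530 nm CCF4 fluorescence read.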
# [19] = molecular target: Thyroid hormone receptor beta (Homo sapiens) (UniProt P10828); assay: qHTS assay for small molecule antagonists of thyroid hormone receptor beta signaling (AID 588547; active = well fitted inhibition curve with a large enough effect in the signal ratio, with a control signal flat, not every such curve was filed as active; inconclusive = small, poorly fitted or top-dose-only effect, or effect the other way, or a change in a side signal; the % refers to the signal ratio;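 also: cells stimulated with 0.4 nM T3 agonist during compound exposure; % is scaled to controls: 0 for no effect and ±100 for the full control effect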); conditions: TR-UAS-bla HEK293, beta-lactamase ratio, antagonist mode, 18 h
# Method in brief: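 Inhibition of T3-driven (0.4nM final) beta-lactamase reporter activity was measured over 0.59 nM to 92 uM compound after 18 h at 37 C. The cells were GripTite HEK293 TR-UAS-bla in charcoal/dextran-stripped serum, with CCF4 ratio read-out and IC50 from Hill fits.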
# Tags tell the direction and shape of the fitted curve.
smiles,measurement,setting,value
CCCCC(CC)COC(=O)CCCCC(=O)OCC(CC)CCCC (stereo unspecified),Potency,[1],"inconclusive: 50.1 µM [falling, single point]"
same,"activity change, negative = fewer live cells",[2],inactive: -3.82%
same,Potency,[3],inactive
same,"activity, negative = inhibition",[4],inconclusive: -46% and inconclusive: 2.95%
same,Potency,[5],inactive
same,activation,[6],inconclusive: 3.33%
COC(=O)CCC(=O)OC,"viability change, negative = cytotoxic",[7],inactive: 4.04%
same,Potency,[8],inactive
same,Potency,[9],inactive
same,Potency,[10],inactive
same,Potency,[11],inactive
same,Potency,[6],inactive
OCCO,"viability change, negative = cytotoxic",[7],inactive: -13.5%
same,Potency,[12],inactive
same,"activity change, negative = inhibition",[13],inconclusive: -27%
same,"activity change, negative = inhibition",[11],inconclusive: 8.51%
same,"activity, negative = inhibition",[4],inconclusive: 5.4%
same,activation,[14],inactive: -5.17%
same,Potency,[15],inactive
same,activation,[6],inconclusive: 0.612%
CCN(CC)c1cccc(O)c1,"viability change, negative = cytotoxic",[7],inactive: -11.1%
same,caspase-3 activation,[16],inactive: 0.712%
same,Potency,[3],inactive
same,activation,[17],inconclusive: 27.9%
same,activation,[18],inconclusive: 1.98%
same,"activity change, negative = inhibition",[13],inconclusive: -3.59%
same,"activity, negative = inhibition",[4],inconclusive: -18.8%
same,activity change % (negative = inhibition),[19],inactive: 4.53%
same,Potency,[15],"inconclusive: 66.8 µM [activator, single point]"
same,activation (TNF-alpha secretion),[5],inconclusive: 1.44%
same,activation,[6],inconclusive: 8.65%
